Measurements from the supplement of paper PMC4967469.
The IC50 comes from the fitted curve, where viability falls to half of the control; a fit beyond the top or the lowest dose is shown as a bound at that dose. AUC is the area under the same curve over the 256-fold range up to the top dose, as a fraction; the more sensitive the line, the further below 1. For some assays here: An inferred top dose comes from the curve model; the source does not state it.

Legend:
Test in all cases: Viability of human cancer cell lines after 72 h of drug (GDSC screen)
[1] = compound: COc1cccc2cc(-c3nc([C@H]4CC[C@H](C(=O)O)CC4)n4ncnc(N)c34)[nH]c12 [OSI-027]; conditions: top dose 20 µM
Procedure: (§1)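 Human cancer cell lines in 384-well plates, medium with 10% serum, drug for 72 h over a 256-fold dose range (nine 2-fold or five 4-fold steps up to the top dose). Adherent lines were fixed and stained with the nucleic acid dye Syto60, suspension lines read with resazurin; signal relative to control wells, capped at 0 and 100%. One two-parameter sigmoid per drug and line, fitted in a mixed model over all curves with the slope shared within a line.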

[2] = compound: COc1cccc2c1C(=O)c1c(O)c3c(c(O)c1C2=O)C[C@@](O)(C(=O)CO)C[C@@H]3O[C@H]1C[C@H](N)[C@H](O)[C@H](C)O1 [Doxorubicin]; conditions: top dose 1.024 µM
Procedure: as §1

[3] = compound: COC(=O)CNC(=O)C(=O)OC [Dimethyloxalylglycine]; conditions: top dose 4000 µM; top dose inferred
Procedure: as §1

[4] = compound: Cc1cnc(Nc2ccc(OCCN3CCCC3)cc2)nc1Nc1cccc(S(=O)(=O)NC(C)(C)C)c1 [TG101348]; conditions: top dose 10.24 µM
Procedure: as §1

[5] = compound: C=CCNC1=C2C[C@@H](C)C[C@H](OC)[C@H](O)[C@@H](C)/C=C(\C)[C@H](OC(N)=O)[C@@H](OC)/C=C\C=C(/C)C(=O)NC(=CC1=O)C2=O [17-AAG]; conditions: top dose 1 µM
Procedure: as §1

[6] = compound: O=C(c1ccc(C(=O)N2CCC(N3CCCC3)CC2)c(Nc2ccccc2)c1)N1CCC(N2CCCC2)CC1 [UNC1215]; conditions: top dose 1 µM; top dose inferred
Procedure: as §1

[7] = compound: CCc1cc(-c2n[nH]c(C)c2-c2ccc3c(c2)OCCO3)c(O)cc1O [CCT018159]; conditions: top dose 10 µM; top dose inferred
Procedure: as §1

[8] = compound: CN(C)Cc1cccc(N=C(c2ccccc2)c2c(O)[nH]c3cc(C(=O)N(C)C)ccc23)c1 [BIX02189]; conditions: top dose 20 µM; top dose inferred
Procedure: as §1

[9] = compound: Cc1cnc(Nc2ccc(F)cc2Cl)nc1-c1c[nH]c(C(=O)N[C@H](CO)c2cccc(Cl)c2)c1 [VX-11e]; conditions: top dose 5.12 µM; top dose inferred
Procedure: as §1

[10] = compound: CS(=O)(=O)c1ccc(C(=O)Nc2ccc(Cl)c(-c3ccccn3)c2)c(Cl)c1 [Vismodegib]; conditions: top dose 10 µM; top dose inferred
Procedure: as §1

Row | Cell Line | AUC [1] | IC50 [1] [µM] | AUC [2] | IC50 [2] [µM] | AUC [3] | IC50 [3] [µM] | AUC [4] | IC50 [4] [µM] | AUC [5] | IC50 [5] [µM] | AUC [6] | IC50 [6] [µM] | AUC [7] | IC50 [7] [µM] | AUC [8] | IC50 [8] [µM] | AUC [9] | IC50 [9] [µM] | AUC [10] | IC50 [10] [µM]
1 | HT-144 (melanoma, adherent) | 0.979 | > 20 | 0.211 | 0.00801 | 0.466 | 200 | 0.984 | > 10.2 | 0.492 | 0.0592 | 0.982 | > 1 | 0.931 | > 10 | 0.971 | > 20 | 0.948 | > 5.12 | – | –
2 | SW900 (lung squamous cell carcinoma, adherent) | 0.878 | > 20 | 0.636 | 0.163 | 0.787 | 2060 | 0.899 | > 10.2 | 0.822 | 0.714 | 0.982 | > 1 | 0.957 | > 10 | 0.952 | > 20 | 0.908 | > 5.12 | – | –
3 | GAMG (glioma, adherent) | 0.273 | 0.273 | 0.499 | 0.0636 | 0.698 | 931 | 0.834 | 7.12 | 0.456 | 0.0471 | 0.983 | > 1 | 0.868 | 9.89 | 0.915 | > 20 | 0.948 | > 5.12 | – | –
4 | VM-CUB-1 (bladder, adherent) | 0.975 | > 20 | 0.549 | 0.0869 | 0.442 | 175 | 0.98 | > 10.2 | 0.435 | 0.0419 | – | – | 0.825 | 5.72 | 0.987 | > 20 | 0.981 | > 5.12 | – | –
5 | NCI-H2085 (lung adenocarcinoma, adherent) | 0.444 | 0.866 | 0.68 | 0.214 | 0.445 | 174 | 0.912 | > 10.2 | 0.962 | > 1 | 0.985 | > 1 | 0.96 | > 10 | 0.948 | > 20 | 0.956 | > 5.12 | – | –
6 | A172 (glioma, adherent) | 0.394 | 0.646 | 0.521 | 0.0729 | 0.62 | 527 | 0.859 | 8.02 | 0.701 | 0.224 | 0.987 | > 1 | 0.85 | 7.17 | 0.963 | > 20 | 0.989 | > 5.12 | – | –
7 | OSC-19 (head and neck, adherent) | 0.851 | 16.2 | 0.449 | 0.046 | 0.403 | 134 | 0.883 | > 10.2 | 0.618 | 0.134 | 0.975 | > 1 | 0.83 | 6.61 | 0.956 | > 20 | 0.964 | > 5.12 | – | –
8 | OAW-28 (ovary, adherent) | 0.733 | 7.02 | 0.666 | 0.211 | 0.734 | 1420 | 0.849 | > 10.2 | 0.979 | > 1 | 0.98 | > 1 | 0.959 | > 10 | 0.908 | > 20 | 0.816 | 3.84 | – | –
9 | NCI-H2030 (lung adenocarcinoma, adherent) | 0.539 | 1.62 | 0.375 | 0.0276 | 0.382 | 113 | 0.812 | 6.43 | 0.477 | 0.0536 | 0.981 | > 1 | 0.765 | 4.14 | 0.918 | > 20 | 0.939 | > 5.12 | – | –
10 | H-EMC-SS (chondrosarcoma, adherent) | 0.617 | 2.89 | 0.677 | 0.233 | 0.689 | 1000 | 0.854 | > 10.2 | 0.954 | > 1 | 0.979 | > 1 | 0.882 | > 10 | 0.78 | 10.9 | 0.62 | 0.757 | – | –
11 | MKN1 (stomach, adherent) | 0.766 | 7.77 | 0.291 | 0.0159 | 0.773 | 1640 | 0.86 | 9.31 | 0.832 | 0.684 | 0.985 | > 1 | 0.913 | > 10 | 0.972 | > 20 | 0.986 | > 5.12 | – | –
12 | CAL-54 (kidney, adherent) | 0.863 | > 20 | 0.727 | 0.313 | 0.676 | 837 | 0.849 | 9.42 | 0.922 | > 1 | 0.983 | > 1 | 0.901 | > 10 | 0.952 | > 20 | 0.865 | > 5.12 | – | –
13 | U031 (kidney, adherent) | 0.615 | 2.62 | 0.735 | 0.309 | 0.539 | 321 | 0.828 | 6.61 | 0.689 | 0.216 | 0.979 | > 1 | 0.815 | 5.73 | 0.982 | > 20 | 0.926 | > 5.12 | – | –
14 | BPH-1 (prostate, adherent) | 0.195 | 0.137 | 0.382 | 0.0293 | 0.539 | 323 | 0.522 | 0.738 | 0.651 | 0.172 | 0.979 | > 1 | 0.853 | 9.11 | 0.933 | > 20 | 0.59 | 0.579 | – | –
15 | EFM-19 (breast, adherent) | 0.751 | 9.88 | 0.743 | – | 0.663 | 902 | 0.803 | 8.63 | – | – | 0.974 | > 1 | 0.957 | > 10 | 0.884 | > 20 | 0.975 | > 5.12 | 0.97 | > 10
16 | SK-MEL-24 (melanoma, adherent) | 0.983 | > 20 | 0.825 | 0.795 | 0.943 | > 4000 | 0.983 | > 10.2 | – | – | 0.978 | > 1 | 0.964 | > 10 | 0.913 | > 20 | 0.801 | 3.13 | 0.977 | > 10
17 | PANC-10-05 (pancreas, adherent) | 0.382 | 0.54 | 0.542 | 0.0859 | 0.507 | – | 0.893 | > 10.2 | 0.767 | 0.479 | 0.977 | > 1 | 0.944 | > 10 | 0.976 | > 20 | 0.871 | > 5.12 | – | –
18 | SW780 (bladder, adherent) | 0.959 | > 20 | 0.97 | > 1.02 | 0.411 | 140 | 0.941 | > 10.2 | – | – | 0.945 | > 1 | 0.869 | > 10 | 0.986 | > 20 | 0.952 | > 5.12 | 0.986 | > 10
19 | NCI-H716 (large intestine, suspension) | 0.751 | 8.14 | 0.978 | > 1.02 | 0.79 | 2300 | 0.628 | 1.59 | – | – | 0.971 | > 1 | 0.91 | > 10 | 0.79 | 11.5 | 0.903 | > 5.12 | 0.778 | 5.17
20 | PANC-08-13 (pancreas, adherent) | 0.367 | 0.481 | 0.839 | – | 0.71 | 1170 | 0.873 | > 10.2 | – | – | 0.981 | > 1 | 0.955 | > 10 | 0.915 | > 20 | 0.879 | > 5.12 | 0.939 | > 10
21 | MZ7-mel (melanoma, adherent) | 0.626 | 2.82 | 0.588 | – | 0.402 | 133 | 0.981 | > 10.2 | 0.606 | 0.124 | 0.985 | > 1 | 0.971 | > 10 | 0.894 | > 20 | 0.536 | 0.402 | – | –
22 | MDA-MB-157 (breast, adherent) | 0.687 | 4.23 | 0.812 | 0.567 | 0.614 | 518 | 0.885 | > 10.2 | 0.614 | 0.13 | 0.984 | > 1 | 0.925 | > 10 | 0.984 | > 20 | 0.984 | > 5.12 | – | –
23 | NUGC-3 (stomach, adherent) | 0.846 | 17.4 | 0.452 | 0.0466 | 0.759 | 1550 | 0.97 | > 10.2 | 0.571 | 0.1 | 0.982 | > 1 | 0.838 | 7.98 | 0.977 | > 20 | 0.965 | > 5.12 | – | –
24 | HLE (liver, adherent) | 0.989 | > 20 | 0.422 | 0.0396 | 0.27 | – | 0.982 | > 10.2 | 0.895 | > 1 | 0.984 | > 1 | 0.933 | > 10 | 0.934 | > 20 | 0.976 | > 5.12 | – | –
25 | LC-2-ad (lung adenocarcinoma, adherent) | 0.481 | 1.11 | 0.212 | 0.00886 | 0.206 | 33 | 0.593 | 1.16 | 0.633 | 0.147 | 0.984 | > 1 | 0.951 | > 10 | 0.916 | > 20 | 0.783 | 2.22 | – | –
26 | UM-UC-3 (bladder, adherent) | 0.418 | 0.756 | 0.563 | 0.0941 | 0.478 | 219 | 0.905 | > 10.2 | – | – | 0.987 | > 1 | 0.839 | 6.2 | 0.927 | > 20 | 0.845 | 3.37 | 0.988 | > 10
27 | JHH-6 (liver, adherent) | 0.984 | > 20 | 0.712 | 0.256 | 0.514 | 273 | 0.987 | > 10.2 | – | – | 0.959 | > 1 | 0.917 | > 10 | 0.96 | > 20 | 0.968 | > 5.12 | 0.987 | > 10
28 | AN3-CA (endometrium, adherent) | 0.399 | 0.642 | 0.479 | 0.0557 | 0.469 | 205 | 0.955 | > 10.2 | – | – | 0.983 | > 1 | 0.878 | > 10 | 0.975 | > 20 | 0.97 | > 5.12 | 0.926 | > 10
29 | PA-TU-8988T (pancreas, adherent) | 0.653 | 3.34 | 0.481 | 0.0569 | 0.629 | 568 | 0.916 | > 10.2 | – | – | 0.985 | > 1 | 0.872 | 9.6 | 0.961 | > 20 | 0.955 | > 5.12 | 0.987 | > 10
